The whole screen tested about 310,000 compounds, of which about 2,200 (0.71%) showed an effect of 50% or more. The effect is printed as a negative number. The list shows a part of the results.
molecular target: human ether-à-go-go-related gene (hERG) potassium channel (human, UniProt Q12809); test: primary screen, population patch clamp on CHO cells stably expressing hERG
Sequence (Q12809 whole entry, looked up): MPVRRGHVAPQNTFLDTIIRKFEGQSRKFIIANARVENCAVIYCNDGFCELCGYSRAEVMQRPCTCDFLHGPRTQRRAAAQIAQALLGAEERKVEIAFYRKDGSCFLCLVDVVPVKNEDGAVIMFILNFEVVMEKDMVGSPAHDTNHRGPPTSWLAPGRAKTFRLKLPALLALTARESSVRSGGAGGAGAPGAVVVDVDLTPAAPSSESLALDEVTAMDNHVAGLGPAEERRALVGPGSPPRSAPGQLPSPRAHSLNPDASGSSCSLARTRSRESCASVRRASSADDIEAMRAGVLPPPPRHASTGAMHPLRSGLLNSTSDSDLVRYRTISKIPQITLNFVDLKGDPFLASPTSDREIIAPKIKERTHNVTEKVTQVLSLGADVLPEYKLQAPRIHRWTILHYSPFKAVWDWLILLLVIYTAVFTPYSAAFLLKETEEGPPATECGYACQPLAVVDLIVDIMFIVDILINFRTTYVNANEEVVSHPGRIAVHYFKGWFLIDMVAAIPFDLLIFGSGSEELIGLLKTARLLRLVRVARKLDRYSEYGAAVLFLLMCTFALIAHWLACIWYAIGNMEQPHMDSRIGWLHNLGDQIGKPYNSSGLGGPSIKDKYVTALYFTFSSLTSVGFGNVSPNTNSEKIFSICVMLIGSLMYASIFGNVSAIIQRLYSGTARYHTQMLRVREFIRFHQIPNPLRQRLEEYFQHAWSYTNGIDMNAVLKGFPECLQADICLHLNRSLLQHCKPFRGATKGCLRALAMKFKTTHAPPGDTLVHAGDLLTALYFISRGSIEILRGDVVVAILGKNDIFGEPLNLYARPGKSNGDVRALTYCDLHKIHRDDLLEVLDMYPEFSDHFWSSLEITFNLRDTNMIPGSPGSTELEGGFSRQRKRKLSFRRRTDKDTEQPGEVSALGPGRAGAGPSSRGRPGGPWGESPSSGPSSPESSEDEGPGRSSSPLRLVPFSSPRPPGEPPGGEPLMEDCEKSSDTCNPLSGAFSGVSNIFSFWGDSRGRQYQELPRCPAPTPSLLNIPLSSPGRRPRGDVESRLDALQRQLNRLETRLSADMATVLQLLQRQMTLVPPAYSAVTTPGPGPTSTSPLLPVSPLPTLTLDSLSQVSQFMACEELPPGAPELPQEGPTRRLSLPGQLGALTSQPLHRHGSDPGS

Compared with CCOc1cc(S(=O)(=O)N2CC=C(c3ccc(F)cc3)CC2)c(OCC)cc1-n1cnnn1, CCN(CC)S(=O)(=O)c1ccc(N2CCc3cc(OC)c(OC)cc3C2)nc1 is higher in “hERG current change (%, negative = inhibition) at 1uM” value: 2.64% for the first, 7.15% for the second.

First: Cc1ccc(OCC(=O)N/N=C/c2cn[nH]c2-c2ccc(Cl)c(Cl)c2)cc1
Second: Cc1ccc(CNC(=O)Nc2ccc3c(c2)N(C)C(=O)CS3)cc1
The “hERG current change (%, negative = inhibition) at 1uM” value of the first is higher: 13.2% for the first, 12.7% for the second.

Compared with COc1ccc(C(=O)Cc2cc(OC)c(OC)cc2[N+](=O)[O-])cc1, COc1ccc(C(=O)CSc2nc3ccc([N+](=O)[O-])cc3[nH]2)cc1 is lower in “hERG current change (%, negative = inhibition) at 1uM” value: 13.6% for the first, 6.41% for the second.

Going from CC1=NOC2(C1)N(C)c1ccccc1C2(C)C (centres unmarked) to Cc1cc(=O)[nH]c(SCC(=O)N2CCCc3ccccc32)n1, the “hERG current change (%, negative = inhibition) at 1uM” value falls from 9.47% to 7.34%.

First: CCc1cc2c(=O)n(CC(=O)NCCc3ccc(OC)c(OC)c3)cnc2s1
Second: CCN(CC)c1nc2c(c(=O)n(C)c(=O)n2C)n1CCCc1ccccc1
The “hERG current change (%, negative = inhibition) at 1uM” value of the first is higher: 10.2% for the first, 6.99% for the second.

First: Cc1cc(NS(=O)(=O)c2ccccc2)n(-c2ccccc2)n1
Second: O=C(Nc1ccccc1)c1ccccc1OS(=O)(=O)c1ccccc1
The “hERG current change (%, negative = inhibition) at 1uM” value of the first is lower: 3.7% for the first, 13.1% for the second.

Compared with Oc1cccc(/C=N/N(Cc2ccccc2)c2ccccc2)c1, O=C(Nc1ccccc1Sc1ccccc1)c1ccccc1F is higher in “hERG current change (%, negative = inhibition) at 1uM” value: 2.4% for the first, 4.1% for the second.

Compared with CCCC(c1nnnn1C1CCCCC1)N1CCN(C2CCCC2)CC1.Cl (centres unmarked), O=C1CCCC/C1=N\Nc1ccc(C2CCCCC2)cc1 is higher in “hERG current change (%, negative = inhibition) at 1uM” value: -16.6% for the first, 17.8% for the second.

Compared with FC(F)(F)c1ccccc1-c1nc(-c2ccncc2)no1, O/N=C\c1ccccc1Oc1ccc(F)cc1 is higher in “hERG current change (%, negative = inhibition) at 1uM” value: 10.7% for the first, 16.2% for the second.

First: CC(C)COc1ccc(Br)cc1CNC(C)(C)C.Cl
Second: CCCOc1ccc(-c2csc3nc[nH]c(=O)c23)cc1
The “hERG current change (%, negative = inhibition) at 1uM” value of the first is lower: -7.74% for the first, 18% for the second.

Going from COc1cc(/C=C(\C#N)c2ccccn2)ccc1OCC(=O)Nc1c(Cl)cccc1Cl.Cl to CCOc1ccccc1OCC(=O)Nc1cc2c(cc1C(=O)O)OCCCO2, the “hERG current change (%, negative = inhibition) at 1uM” value falls from 15.7% to 12.6%.

Compared with CCOc1ccccc1NC(=O)Nc1ccc(CC#N)cc1, CCOc1ccc(N2C(=O)/C(=C/c3ccccc3)N=C2SC)cc1 is higher in “hERG current change (%, negative = inhibition) at 1uM” value: 6.25% for the first, 10.1% for the second.

Going from Cc1cccc(Nc2nnc(SCC(=O)c3c(N)n(C4CC4)c(=O)[nH]c3=O)s2)c1 to CCOC(=O)c1c(NC(=O)c2cccc(N3C(=O)CCC3=O)c2)sc2c1CCN(CC)C2.Cl, the “hERG current change (%, negative = inhibition) at 1uM” value falls from 10.9% to -3.48%.

Compared with Oc1ccccc1/C=N/NC(=S)NC1CC2CC1C1C=CCC21 (centres unmarked), CN1CCN(/N=C/c2nc(-c3ccccc3)n3ccccc23)CC1 is lower in “hERG current change (%, negative = inhibition) at 1uM” value: 20.3% for the first, -0.698% for the second.

First: COc1cc(-c2ccccc2)[nH]c(=S)n1
Second: Nc1ccccc1C(=O)N/N=C1/C2CN3CCN(C2)CC1(Cc1ccccc1)C3
The “hERG current change (%, negative = inhibition) at 1uM” value of the first is higher: 19.1% for the first, -2.94% for the second.

Going from Cc1ccc(N(CC(=O)NC2CCCCC2C)S(=O)(=O)c2c(C)noc2C)cc1 (centres unmarked) to Cc1ccc(C)c(N2N=C(C(=O)Nc3ccccc3N3CCOCC3)CCC2=O)c1, the “hERG current change (%, negative = inhibition) at 1uM” value falls from 7.21% to -12.6%.

First: CCCc1cnc(N2CCN(C(=S)NC)CC2)nc1
Second: Cc1cc(C(=O)N2CCN(c3ccc([N+](=O)[O-])cc3)CC2)co1
The “hERG current change (%, negative = inhibition) at 1uM” value of the first is higher: -1.85% for the first, -64.7% for the second.

Compared with CCCCOC(=O)c1ccc(NC(=S)NC(=O)c2c(Br)c(C)nn2C)cc1, Cc1nn(C)cc1CNC(=O)Nc1ccc(Cl)cc1 is lower in “hERG current change (%, negative = inhibition) at 1uM” value: 15% for the first, 1.56% for the second.

Compared with CCc1ccc(S(=O)(=O)/N=C2\C=C(Nc3cccc(C(=O)O)c3)C(=O)c3ccccc32)cc1, CC(=O)c1cccc(NC(=O)CN2CCN(S(=O)(=O)/C=C/c3ccccc3)CC2)c1 is lower in “hERG current change (%, negative = inhibition) at 1uM” value: -1.15% for the first, -4.4% for the second.

Compared with O=C1CCN(Cc2ccc(Cl)cc2)N1, O=C(CSCc1ccc(Cl)cc1)c1ccco1 is lower in “hERG current change (%, negative = inhibition) at 1uM” value: 12.9% for the first, 5.67% for the second.

First: O=C1SCCC1NS(=O)(=O)c1ccc([N+](=O)[O-])cc1 (centres unmarked)
Second: O=C(NCc1ccc(F)cc1)c1c2c(nc3ccccc13)CCN(Cc1ccccc1)C2
The “hERG current change (%, negative = inhibition) at 1uM” value of the first is higher: 1.84% for the first, 0.811% for the second.

First: CC1(C)OC(=O)C(=CNCC(=O)NCC(=O)O)C(=O)O1
Second: O=C(Nc1cccc(-c2nc3ccccc3[nH]2)c1)c1ccc(C(=O)Nc2cccc(-c3nc4ccccc4[nH]3)c2)cc1
The “hERG current change (%, negative = inhibition) at 1uM” value of the first is lower: 8.39% for the first, 14.6% for the second.
